For this test, the system named is primary human hepatic stellate cells (donor 1). The test can be described thus: scaled lipid accumulation score (0 = DMSO-like, 1 = nortriptyline-like); higher = stronger HSC inactivation (lipid re-accumulation), active = hit call of the paper. The note with it: 48 h. The method, then: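 Primary lipid accumulation screen in primary human hepatic stellate cell myofibroblasts (donor 1, passage 8) in 384-well plates. 100 nL of library compound was pin-transferred into 30 µL medium in duplicate, and cells were treated for 48 h. The 'Scaled' score combines distance from plate baseline, toxicity and reproducibility penalties, and is normalised to nortriptyline (positive) and DMSO (negative) controls on each plate. A hit is defined as scaled >0.85 or among the top 3 wells per plate.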

[1] abbreviates: library stock concentration: 1 mM.
[2] abbreviates: library stock concentration: 10 mM.
[3] abbreviates: library stock concentration: 3.33 mM.
The mark [4] stands for this setting: library stock concentration: 80 uM.
[5] abbreviates: library stock concentration: 400 uM.
Where [6] appears, read: library stock concentration: 2 mM.
The mark [7] stands for this setting: library stock concentration: 6.7 mM.

SMILES strings stand for the structures. Where “and” joins values, the source holds several entries; their conditions need not be identical. Equal values may be shown once. Where a name gives a salt, the structure may show the parent alone. About 620 (11%) of roughly 5,800 compounds showed activity.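 The calls were made as follows: active = score above a cut-off or among the top three wells of a plate; in these data no inactive exceeds 0.85.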 The list shows a part of the results, in another mix than the full data.

On to `CCCCC[C@H](O)/C=C/[C@H]1[C@@H]2CO[C@@H](C2)[C@@H]1C/C=C\CCCC(=O)O`, for which the “scaled lipid accumulation score” value under setting [1] is inactive: ≤ 0.

Turning to `Cl.Cl.OCCN1CCN(CCCN2c3ccccc3C=Cc3ccccc32)CC1` [Opipramol dihydrochloride], under setting [2], the “scaled lipid accumulation score” value is active: 0.885.

`C[C@]12CC[C@H](O)CC1=CCC1C2CC[C@]2(C)C(n3cnc4ccccc43)=CCC12` (stereo not given in full) [Galeterone]: the “scaled lipid accumulation score” value under setting [2] is active: 1.27.

Take `Nc1nc(Nc2ccc(S(N)(=O)=O)cc2)nn1C(=S)Nc1c(F)cccc1F` [Cdk1/2 Inhibitor III]: under setting [3], the “scaled lipid accumulation score” value is inactive: 0.782.

Regarding `CC1=C(/C=C/C(C)=C\C=C\C(C)=C\C(=O)O)C(C)(C)CCC1` [9-cis Retinoic acid], the “scaled lipid accumulation score” value under setting [1] was inactive: ≤ -0.021.

With `CC[C@H](CO)Nc1nc(NCc2ccccc2O)c2ncn(C(C)C)c2n1` [Olomoucine II], the “scaled lipid accumulation score” value under setting [3] is inactive: 0.299.

With `O=C(O)CCC/C=C\C[C@@H]1[C@@H](/C=C/C(F)(F)COc2ccccc2)[C@H](O)C[C@@H]1O` [Tafluprost (free acid)], the “scaled lipid accumulation score” value under setting [1] was inactive: 0.007.

For the compound `C[C@]1(Cn2ccnn2)[C@H](C(=O)O)N2C(=O)C[C@H]2S1(=O)=O`, the “scaled lipid accumulation score” value under setting [2] was inactive: 0.126.

For `CCN(CC)Cc1ccc2cc(COC(=O)Nc3ccc(C(=O)NO)cc3)ccc2c1.Cl.O` [Givinostat (ITF2357)], the “scaled lipid accumulation score” value under setting [3] is active: 0.903 and the “scaled lipid accumulation score” value under setting [2] is active: 0.897.

For `CN(C)CCC(c1ccc(Br)cc1)c1ccccn1` (single isomer, unassigned; (+)) [(+)-Brompheniramine maleate], the “scaled lipid accumulation score” value under setting [2] was inactive: 0.351.

For the compound `C=CS(=O)(=O)NC1CCN(C(=O)CNc2cc(I)c(Cl)cc2OC)CC1` [K-Ras(G12C) inhibitor 9], the “scaled lipid accumulation score” value is inactive: 0.381 under setting [3] and inactive: 0.776 under setting [2].

With `CC[C@@H](CO)NCCN[C@@H](CC)CO` [Ethambutol dihydrochloride], the “scaled lipid accumulation score” value is inactive: 0.03.

With `CC[C@@H](CO)NCCN[C@@H](CC)CO` [Ethambutol HCl], the “scaled lipid accumulation score” value under setting [3] was inactive: ≤ 0 and the “scaled lipid accumulation score” value under setting [2] is inactive: ≤ -0.001.

For the compound `CC[C@@H](CO)NCCN[C@@H](CC)CO` [Ethambutol], the “scaled lipid accumulation score” value under setting [2] was inactive: ≤ 0.

Regarding `CC[C@@H](CO)NCCN[C@@H](CC)CO` [Ethambutol hydrochloride], the “scaled lipid accumulation score” value was inactive: 0.022 (library stock concentration: 7.2 mM) and inactive: ≤ 0 under setting [2].

As to `CC1=C(/C=C/C(=C/C=C/C(C)=C/C(=O)O)c2ccc(C)cc2)C(C)(C)CCC1`, the “scaled lipid accumulation score” value under setting [2] is inactive: ≤ -0.001.

Take `O=C(NCCN1CCCCC1)c1ccc(I)cc1` [N-[2-(Piperidinylamino)ethyl]-4-iodobenzamide]: under setting [2], the “scaled lipid accumulation score” value was inactive: 0.428.

As for `CC(=O)OCC(=O)[C@@]1(OC(C)=O)[C@@H](C)C[C@H]2[C@@H]3C[C@H](F)C4=CC(=O)C=C[C@]4(C)[C@@]3(F)[C@@H](O)C[C@@]21C` [Diflorasone diacetate], the “scaled lipid accumulation score” value (library stock concentration: 4 mM) is inactive: ≤ 0.

Consider `CC(=O)OCC(=O)[C@@]1(OC(C)=O)[C@@H](C)C[C@H]2[C@@H]3C[C@H](F)C4=CC(=O)C=C[C@]4(C)[C@@]3(F)[C@@H](O)C[C@@]21C` [Diflorasone Diacetate], for which the “scaled lipid accumulation score” value is inactive: ≤ 0.

Take `COc1cc2ncn(-c3cc(OCc4ccccc4C(F)(F)F)c(C(N)=O)s3)c2cc1OC`: under setting [2], the “scaled lipid accumulation score” value is active: 0.992.

Regarding `C=CCNC1=C2C[C@@H](C)C[C@H](OC)[C@H](O)[C@@H](C)C=C(C)[C@H](OC(N)=O)[C@@H](OC)C=CC=C(C)C(=O)NC(=CC1=O)C2=O` [17-AAG (Tanespimycin)], under setting [2], the “scaled lipid accumulation score” value is active: 0.873.

As to `CNCCC[C@]12CC[C@H](c3ccccc31)c1ccccc12.Cl` [Maprotiline hydrochloride], the “scaled lipid accumulation score” value is active: 0.944.

Consider `CC(N)(Cc1ccc(O)c(O)c1)C(=O)O` (racemic) [(?)-3-(3,4-dihydroxyphenyl)-2-methyl-DL-alanine], for which the “scaled lipid accumulation score” value under setting [2] is inactive: 0.067.

Consider `Cc1cc(C)c(S(=O)(=O)Nc2cccc(C(F)(F)F)c2)c(C)c1`, for which, under setting [2], the “scaled lipid accumulation score” value was inactive: ≤ -0.006.

Consider `CCCOc1ccc(C(=O)OCCN(CC)CC)cc1N` [Proparacaine HCl], for which the “scaled lipid accumulation score” value by setting is: under setting [3], inactive: ≤ 0; under setting [2], inactive: ≤ 0.

In the case of `CCCOc1ccc(C(=O)OCCN(CC)CC)cc1N` [Proxymetacaine], the “scaled lipid accumulation score” value under setting [2] was inactive: 0.166.

Turning to `CCCOc1ccc(C(=O)OCCN(CC)CC)cc1N` [Proparacaine hydrochloride], the “scaled lipid accumulation score” value is inactive: ≤ 0. Moreover, the “scaled lipid accumulation score” value (library stock concentration: 6 mM) was inactive: ≤ 0.

Consider `COC(=O)Nc1ccc2[nH]cc(CCNC(C)=O)c2c1`, for which, under setting [2], the “scaled lipid accumulation score” value is inactive: 0.024.

Take `C#CCn1c(=O)c2c(ncn2C)n(C)c1=O` [3,7-Dimethyl-1-propargylxanthine]: the “scaled lipid accumulation score” value under setting [2] was inactive: ≤ -0.07.

As to `Cn1cc(-c2ccc3c(c2)CCN3C(=O)Cc2cccc(C(F)(F)F)c2)c2c(N)ncnc21`, the “scaled lipid accumulation score” value is inactive: ≤ -0.009 under setting [3] and inactive: 0.687 under setting [2].

As to `Oc1cccc(-c2nc(N3CCOCC3)c3oc4ncccc4c3n2)c1`, the “scaled lipid accumulation score” value was inactive: 0.118 under setting [4]; inactive: 0.051 and inactive: ≤ -0.005 under setting [5]; inactive: ≤ 0 under setting [1]; inactive: ≤ -0.009 and inactive: ≤ -0.005 under setting [6]; inactive: 0.203 and inactive: 0.016 under setting [3]; inactive: 0.796 and inactive: 0.279 under setting [2].

As to `CCN(CC)CCCC(C)Nc1c2ccc(Cl)cc2nc2ccc(OC)cc12` (stereo not given) [Quinacrine 2HCl dihydrate], the “scaled lipid accumulation score” value (library stock concentration: 5 mM) is active: 0.876.

As to `CC(=O)OCC(=O)[C@H]1CC[C@H]2[C@@H]3CCC4=CC(=O)CC[C@]4(C)[C@H]3CC[C@]12C` [Desoxycorticosterone acetate], the “scaled lipid accumulation score” value runs as follows: (library stock concentration: 5.4 mM) inactive: ≤ -0.001; under setting [2], inactive: 0.053.

Regarding `Cc1cc(SCc2sc(-c3ccc(C(F)(F)F)cc3)nc2C)ccc1OCC(=O)O`, the “scaled lipid accumulation score” value by setting is: under setting [4], inactive: 0.028; under setting [5], inactive: ≤ -0.001; under setting [6], inactive: ≤ -0.001; under setting [2], inactive: 0.119.

In the case of `N=C(N)NCCN1CCCCCCC1` [Guanethidine sulfate], the “scaled lipid accumulation score” value was inactive: ≤ 0. Besides, under setting [7], the “scaled lipid accumulation score” value is inactive: 0.022. Also, the “scaled lipid accumulation score” value under setting [2] is inactive: ≤ 0.

`CC(C)CCCC(C)NC(C)C` (stereo not given): under setting [2], the “scaled lipid accumulation score” value was inactive: ≤ 0.

Turning to `N#C/C(=C\c1ccc(O)c(O)c1)C(=O)NCc1ccccc1`, the “scaled lipid accumulation score” value reads like this: under setting [3], inactive: ≤ 0; under setting [2], inactive: 0.001; (library stock concentration: 17 mM) inactive: ≤ -0.021.

Turning to `C[C@@H]1CN(CCCn2c3ccccc3c3ccccc32)C[C@H](C)N1.Cl.Cl` [Rimcazole dihydrochloride], the “scaled lipid accumulation score” value under setting [2] is active: 1.34.

Regarding `CC1(C)[C@@H](OC(=O)CCC(=O)O)CC[C@]2(C)[C@H]3C(=O)C=C4[C@@H]5C[C@@](C)(C(=O)O)CC[C@]5(C)CC[C@@]4(C)[C@]3(C)CC[C@@H]12` [Carbenoxolone sodium], the “scaled lipid accumulation score” value under setting [2] is inactive: ≤ 0.

As to `CC1(C)[C@@H](OC(=O)CCC(=O)O)CC[C@]2(C)[C@H]3C(=O)C=C4[C@@H]5C[C@@](C)(C(=O)O)CC[C@]5(C)CC[C@@]4(C)[C@]3(C)CC[C@@H]12` [Carbenoxolone disodium salt], the “scaled lipid accumulation score” value is inactive: ≤ 0.

With `O=S(c1ccccc1)c1ccc2nnnn2n1` (stereo not given), the “scaled lipid accumulation score” value under setting [2] was active: 1.3.

`C=CCOC(Cn1ccnc1)c1ccc(Cl)cc1Cl` (stereo not given) [Enilconazole]: the “scaled lipid accumulation score” value is inactive: ≤ 0. Moreover, the “scaled lipid accumulation score” value under setting [7] was inactive: ≤ 0.

For `CC(C)CCC[C@@H](C)[C@H]1CC[C@H]2[C@@H]3CC(=O)[C@@]4(O)C[C@@H](O)CC[C@]4(C)[C@H]3CC[C@]12C` [5.alpha.-hydroxy-6-keto Cholesterol], the “scaled lipid accumulation score” value under setting [1] was inactive: ≤ 0.

For the compound `O=C(/C=C/c1ccc(O)c(O)c1)O[C@@H]1C[C@](O)(C(=O)O)C[C@@H](O)[C@H]1O` [Chlorogenic Acid], the “scaled lipid accumulation score” value by setting is: under setting [1], inactive: ≤ 0; under setting [3], inactive: ≤ 0; under setting [2], inactive: ≤ 0.

For `O=C(/C=C/c1ccc(O)c(O)c1)O[C@@H]1C[C@](O)(C(=O)O)C[C@@H](O)[C@H]1O` [Chlorogenic acid], the “scaled lipid accumulation score” value is inactive: ≤ 0. Besides, the “scaled lipid accumulation score” value under setting [2] was inactive: ≤ 0.

As for `O=C(/C=C/c1c(C(=O)O)[nH]c2cc(Cl)cc(Cl)c12)Nc1ccccc1` [Gavestinel], the “scaled lipid accumulation score” value under setting [2] was inactive: ≤ -0.001.

Regarding `N#CC(C#N)=C(N)/C(C#N)=C/c1cc(O)c(O)c(O)c1` [Tyrphostin 51], the “scaled lipid accumulation score” value under setting [2] is inactive: ≤ 0.

For `Nc1ncnc2nc(-c3ccc(N4CCOCC4)nc3)cc(-c3cccc(Br)c3)c12`, under setting [2], the “scaled lipid accumulation score” value was active: 0.982.

Turning to `CCCCN(CC)c1nc(C)nc2c1c(C)cn2-c1c(C)cc(C)cc1C`, under setting [2], the “scaled lipid accumulation score” value was inactive: 0.047.

With `Clc1cccc2c1CN(C1=NCCN1)C2`, under setting [2], the “scaled lipid accumulation score” value is inactive: ≤ 0.

Take `N#Cc1c(NC(=O)c2cccc3ccccc23)sc2c1CCCC2` [JNK Inhibitor IX]: the “scaled lipid accumulation score” value reads like this: under setting [3], inactive: 0.132 and inactive: 0.098; under setting [2], inactive: 0.305.

In the case of `C=CC(=O)Nc1cccc(Nc2nc(Nc3ccc(OCCOC)cc3)ncc2F)c1`, the “scaled lipid accumulation score” value runs as follows: under setting [3], inactive: ≤ -0.009; under setting [2], inactive: 0.576.

As to `C=CC(=O)Nc1cccc(Nc2nc(Nc3ccc(OCCOC)cc3)ncc2F)c1` [Spebrutinib], the “scaled lipid accumulation score” value is, setting by setting: under setting [4], inactive: ≤ -0.001; under setting [5], inactive: ≤ -0.001; under setting [6], inactive: ≤ -0.001; under setting [2], inactive: 0.202.

As to `O=C(O)CP(=O)(O)O` [Phosphonoacetic acid], the “scaled lipid accumulation score” value under setting [2] is inactive: ≤ 0.

Turning to `NC1CCN(c2nc3c(cc2F)c(=O)c(C(=O)O)cn3-c2ccc(F)cc2F)C1` (stereo not given) [Tosufloxacin], the “scaled lipid accumulation score” value (library stock concentration: 4.9 mM) is inactive: ≤ 0.

As to `NC1CCN(c2nc3c(cc2F)c(=O)c(C(=O)O)cn3-c2ccc(F)cc2F)C1` (stereo not given), the “scaled lipid accumulation score” value under setting [2] is inactive: 0.275.

With `COC(=O)Nc1nc2cc([S+]([O-])c3ccccc3)ccc2[nH]1` (stereo not given) [Oxfendazole], the “scaled lipid accumulation score” value was inactive: ≤ 0 under setting [3]; inactive: 0.02 and inactive: ≤ 0 (library stock concentration: 6.3 mM); inactive: ≤ 0 and inactive: ≤ -0.027 under setting [2].

On to `C[C@@H]1C(=O)NC2=Nc3cccc(Cl)c3CN21` [Quazinone], for which, under setting [2], the “scaled lipid accumulation score” value was inactive: ≤ 0.

With `CCCCC[C@@H](O)/C=C/[C@H]1C(=O)C[C@H](O)[C@@H]1CCCCCCCO` [Prostaglandin D1 Alcohol], the “scaled lipid accumulation score” value under setting [1] was inactive: ≤ 0.

Source of the values: the supplement of paper PMC9135407.
